No constants are given. Whether binding was seen depends on the method and setting. Some binding calls cover weakened binding; strength is not graded here.
T1: CotB C-terminal region (CotB^C, residues 195-380) (Bacillus subtilis) (UniProt P07789)
T1 sequence: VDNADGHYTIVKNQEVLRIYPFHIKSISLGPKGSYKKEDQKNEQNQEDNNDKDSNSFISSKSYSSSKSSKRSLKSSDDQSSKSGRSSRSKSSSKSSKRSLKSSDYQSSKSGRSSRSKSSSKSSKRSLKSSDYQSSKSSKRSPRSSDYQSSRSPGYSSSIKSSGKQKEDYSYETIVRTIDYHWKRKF

T2: CotG (Bacillus subtilis) (UniProt P39801)
T2 sequence: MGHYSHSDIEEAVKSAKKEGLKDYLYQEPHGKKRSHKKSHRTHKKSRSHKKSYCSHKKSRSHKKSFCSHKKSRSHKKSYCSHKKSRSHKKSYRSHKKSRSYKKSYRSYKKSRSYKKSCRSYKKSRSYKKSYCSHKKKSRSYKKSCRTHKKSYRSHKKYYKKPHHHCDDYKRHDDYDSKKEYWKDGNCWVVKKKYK

T3: CotB full length (CotB^FL) (Bacillus subtilis) (UniProt P07789)
T3 sequence: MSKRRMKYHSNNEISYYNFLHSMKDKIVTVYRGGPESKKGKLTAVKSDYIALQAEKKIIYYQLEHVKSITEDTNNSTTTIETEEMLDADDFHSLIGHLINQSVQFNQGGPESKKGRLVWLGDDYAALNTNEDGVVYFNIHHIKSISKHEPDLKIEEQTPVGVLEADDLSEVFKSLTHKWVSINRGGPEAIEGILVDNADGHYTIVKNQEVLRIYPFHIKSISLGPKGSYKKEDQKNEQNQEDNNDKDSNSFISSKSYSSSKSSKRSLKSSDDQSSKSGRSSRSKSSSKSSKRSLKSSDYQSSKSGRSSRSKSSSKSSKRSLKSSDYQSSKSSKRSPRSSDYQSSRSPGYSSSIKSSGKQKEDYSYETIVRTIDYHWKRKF

T4: CotH (Bacillus subtilis) (UniProt Q45535)
T4 sequence: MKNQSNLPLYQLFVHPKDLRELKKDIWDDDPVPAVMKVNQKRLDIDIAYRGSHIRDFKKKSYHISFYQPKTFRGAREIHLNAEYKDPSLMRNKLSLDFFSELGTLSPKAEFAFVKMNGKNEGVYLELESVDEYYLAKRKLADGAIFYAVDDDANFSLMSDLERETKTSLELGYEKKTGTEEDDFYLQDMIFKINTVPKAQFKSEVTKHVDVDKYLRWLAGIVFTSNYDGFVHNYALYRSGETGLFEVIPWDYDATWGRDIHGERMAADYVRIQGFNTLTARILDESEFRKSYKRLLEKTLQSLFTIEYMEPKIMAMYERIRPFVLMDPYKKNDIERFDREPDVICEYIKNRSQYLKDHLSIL

T5: CotB N-terminal region (CotB^N, residues 1-213) (Bacillus subtilis) (UniProt P07789)
T5 sequence: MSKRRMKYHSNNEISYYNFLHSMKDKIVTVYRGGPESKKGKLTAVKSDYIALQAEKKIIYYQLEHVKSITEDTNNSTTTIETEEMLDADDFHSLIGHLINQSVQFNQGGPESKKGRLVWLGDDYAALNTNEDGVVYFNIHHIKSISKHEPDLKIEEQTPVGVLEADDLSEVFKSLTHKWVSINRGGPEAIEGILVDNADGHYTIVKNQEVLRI

B1: CotB full length (CotB^FL) (protein, UniProt P07789 1-380)
chain: T3 sequence
B2: CotB N-terminal region (CotB^N, residues 1-213) (domain or fragment, UniProt P07789 1-213)
chain: T5 sequence
B3: CotB C-terminal region (CotB^C, residues 195-380) (domain or fragment, UniProt P07789 195-380)
chain: T1 sequence
B4: CotG (protein, UniProt P39801 1-195)
chain: T2 sequence
B5: CotH (enzyme, UniProt Q45535 1-362)
chain: T4 sequence

Biological target: T1, CotB C-terminal region (CotB^C, residues 195-380) (Bacillus subtilis)
Test: two-hybrid; GAL4-based yeast two-hybrid; AD fusions in pACT-2 (strain Y190), BD fusions in pAS2-1 (strain Y187), diploids; colony lift assay for lacZ expression; +++, + and − mean colour in 30 min, 1 hr and greater than 1 hr; three independent colonies for each combination

Binder	binding
B1	no binding
B2	no binding
B3	no binding
B4	binds
B5	no binding

Biological target: T2, CotG (Bacillus subtilis)
Test: as above

Binder	binding
B1	binds
B2	no binding
B3	binds
B4	binds
B5	no binding

Biological target: T3, CotB full length (CotB^FL) (Bacillus subtilis)
Test: as above

Binder	binding
B1	binds
B2	binds
B4	binds
B5	no binding

Biological target: T4, CotH (Bacillus subtilis)
Test: as above

Binder	binding
B1	no binding
B2	no binding
B3	no binding
B4	no binding
B5	no binding

Biological target: T5, CotB N-terminal region (CotB^N, residues 1-213) (Bacillus subtilis)
Test: as above

Binder	binding
B1	binds
B2	binds
B3	no binding
B4	no binding
B5	no binding

— publication PMC7821199
